From PubChem BioAssay AID1745853 (National Center for Advancing Translational Sciences (NCATS), 2022)
“And” between values parts separate entries of the source, which are not always exact repeats. Equal entries are not always repeated. This is one part of the list. These are further read-outs of the screen, such as a control signal, another cell line or another target. No call is given for them.

Tests used:
Test in all cases: Primary Screen for Target Class Profiling of Small Molecule Inhibitors of Methyltransferases
[1] = biological target: Glycine N-methyltransferase (Homo sapiens) (UniProt Q14749); settings: purified enzyme, MTase-Glo SAH luminescence; measured here: GNMT inhibition; at 40 µM; stronger effect = lower value
Summary of the method: (§1)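 Each enzyme was reacted with SAM and its substrate, with compounds tested once at 40 uM; SAH formed was read by MTase-Glo luminescence.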

[2] = biological target: Guanidinoacetate N-methyltransferase (Homo sapiens) (UniProt Q14353); settings: purified enzyme, MTase-Glo SAH luminescence; measured here: GAMT inhibition; at 40 µM; stronger effect = lower value
Summary of the method: as §1

[3] = biological target: Histamine N-methyltransferase (Homo sapiens) (UniProt P50135); settings: purified enzyme, MTase-Glo SAH luminescence; measured here: HNMT inhibition; at 40 µM; stronger effect = lower value
Summary of the method: as §1

[4] = biological target: Nicotinamide N-methyltransferase (Homo sapiens) (UniProt P40261); settings: purified enzyme, MTase-Glo SAH luminescence; measured here: NNMT inhibition; at 40 µM; stronger effect = lower value
Summary of the method: as §1

[5] = biological target: Phenylethanolamine N-methyltransferase (Homo sapiens) (UniProt P11086); settings: purified enzyme, MTase-Glo SAH luminescence; measured here: PNMT inhibition; at 40 µM; stronger effect = lower value
Summary of the method: as §1
On the % scale 0 is the no-effect control and ±100 the full control effect.

| Compound | activity change, negative = inhibition [1] | activity change, negative = inhibition [2] | activity change, negative = inhibition [3] | activity change, negative = inhibition [4] | activity change, negative = inhibition [5] |
| --- | --- | --- | --- | --- | --- |
| O=C(Nc1cc(F)ccc1F)N1Cc2c(sc3c2CCCC3)-n2cccc2C1c1ccc(F)cc1 (stereo not given) | -2.34% | 0.24% | -1.34% | -6.2% | 6.02% |
| CCCCN1C(=O)c2ccc(-c3ccco3)n2CC1(C)C(=O)NC1CCCCCCC1 (stereo not given) | -13% | 0% | -6.96% | -23.7% | -7.74% |
| CCCn1c(=O)c2ccc(Cl)cc2n2c(=O)n(CC(=O)Nc3ccc4c(c3)OCO4)nc12 | -3.78% | -5.96% | 11.5% | -9.78% | -3.93% |
| CN1CCN(C)c2cnc(-c3cnn(Cc4ccccc4)c3)cc2C1 | -17.8% | -17.7% | -66.2% | -25.8% | -17.9% |
| CCN1CCC[C@H]1CNC(=O)c1cc(S(N)(=O)=O)ccc1OC | -5.86% and 2.94% | -17% and 9.05% | -0.693% and -1.01% | -19.8% and -5.12% | -1.62% and 4.97% |
| COc1ccc(C(=O)N2CCC3(CCC3OC)CC2)cn1 (stereo not given) | -0.575% | 0.705% | -0.916% | -5.9% | 0.579% |
| O=C(CCN1CCN(C(=O)OCc2cc(Cl)cc(Cl)c2)CC1)c1ccc2[nH]c(=O)oc2c1 | 0.758% | 3.85% | 3.44% | -26.2% | -11.7% |
| O=C(/C=C/c1ccc(O)c(O)c1)OCc1ccccc1O[C@@H]1O[C@H](CO)[C@@H](O)[C@H](O)[C@H]1O | -0.649% | 7.14% | 6.04% | -7.01% | 4.8% |
| O=C(Nc1ccc(-c2ccncc2)cc1)N[C@H](CO)c1ccccc1 | -3.26% | 1.55% | -3.52% | -10.5% | -0.595% |
| Cc1ccccc1CN1C(=O)c2cc3ccccc3n2CC1(C)C(=O)NCCCOC(C)C (stereo not given) | 1.64% | 5.86% | 1.23% | 4.03% | -1.12% |
| Cc1cc2nc3n(c(=O)c2n1CC(=O)NCCc1ccc(Cl)cc1)CCCC3 | -5.19% | -10.3% | -2.65% | -12.9% | -5.71% |
| COc1ccc(Cl)cc1N1C(=O)CSc2c(c3ccccc3n2C)C1C(=O)NCCCOC(C)C (stereo not given) | 1.28% | 0% | -3.93% | -4.45% | -0.246% |
| C/C(=C/CO)CCC1C(C)CCC2C(C)(C)CCCC12C (stereo not given) | 2.1% | 5.27% | 2.06% | -12.8% | -1.64% |
| COc1cc(C2c3cc(O)c(OC)cc3CC(CO)C2CO)ccc1O (stereo not given) | -3.33% | 0.433% | 3.57% | -10.8% | 0.154% |
| CCC(C(=O)NCc1ccc(Cl)cc1)n1ccc2cc(S(=O)(=O)N3CCCCC3)ccc21 (stereo not given) | 3.95% | 0.759% | 1.95% | 5.37% | 3.13% |
| O=C(CCO[C@@H]1O[C@H](CO)[C@@H](O)[C@H](O)[C@H]1O)c1ccc(O)cc1 | 0% | 4.77% | 10.4% | -6.03% | 0.059% |
| COc1cc(C)c(C(=O)O[C@H]2[C@@H](OC(C)=O)[C@H](n3ccc(=O)[nH]c3=O)O[C@@H]2CO)c(OC)c1 | -0.62% | -4.51% | 6.91% | -14.7% | -2.76% |
| C=CCNC(=O)N[C@H]1CO[C@H]2[C@@H]1OC[C@@H]2Nc1nccc(C(C)(C)C)n1 | -4.1% | -3.38% | -2.11% | -3.89% | 3.58% |
| Cc1ccccc1CCNC(=O)Cn1ccc2cc(S(=O)(=O)N3CCCCC3)ccc21 | 0.457% | 5.04% | 4.11% | -1.9% | -7.53% |
| Cn1c(=O)n(C)c2cc(S(=O)(=O)Nc3ccc(Cl)cc3)ccc21 | -14% | -3.82% | -4.75% | -9.69% | -4.21% |
| O=C(CCn1ccc2cc(S(=O)(=O)N3CCCC3)ccc21)NC1CC1 | 7.45% | 0.444% | 8.07% | 11.2% | 7.37% |
| O=C(Nc1ccccc1C(F)(F)F)N1CCn2cccc2C1Cc1ccccc1 (stereo not given) | 0.105% | 0.388% | -4.29% | -1.63% | -3.37% |
| CCCCNc1ncc(-c2ccc(CN3CCOCC3)cn2)c(NC2CCC(O)CC2)n1 (stereo not given) | -3.17% | -3.04% | -1.54% | -12.9% | -2.03% |
| CCCn1c(=O)c2ccc(C(=O)NCC(C)C)cc2n2c(=O)n(CC(=O)c3ccc(OC)cc3)nc12 | -1.08% | 2.94% | 0.948% | -0.61% | -1.01% |
| O=C(CCc1cc2n(n1)CCNC2)NCc1nc2ccc(Cl)cc2[nH]1 | -4.33% | -2.02% | -3.09% | -5.57% | -30.9% |
| CN(c1ccccc1)c1cc(=O)c2ccnc(NCC3CCOCC3)c2o1 | -27.7% | -26.4% | -34.6% | -37% | -17.2% |
| CC(=O)Nc1c2n(c3ccccc13)CC(C)(C(=O)NC1CCCCCC1)N(C1CCCCCC1)C2=O (stereo not given) | -0.408% | 2.27% | -7.99% | -4.32% | 0.735% |
| CC(C)c1nccn1Cc1cc(C(=O)N(C)Cc2ccccc2Cl)n[nH]1 | -0.183% | -1.4% | -3.27% | -0.594% | 1.05% |
| O=C(c1cccc(-c2ccccn2)c1)N1CCN([S+](=O)([O-])c2ccccc2)CC1 | -5.53% | -4.49% | -5.28% | -15.9% | -13.8% |
| Cc1ccc(NC(=O)Cn2c(=O)oc3cc(S(=O)(=O)N4CCCC4)ccc32)cc1Cl | -5.33% | -4.25% | -8.67% | -9.01% | -27% |
